Reference: PubChem BioAssay AID686978 (National Center for Advancing Translational Sciences (NCATS), 2013)
The campaign covered roughly 420,000 compounds. About 64,000 (15%) were called active. The shares of active, inactive and inconclusive entries below differ from those in the screen. Calls come from the whole dose curve; as a rule, active = well fitted inhibition curve with a large enough effect; inconclusive = small, poorly fitted or top-dose-only effect; inactive = flat fitted curve, though single readings scatter. Potencies of inconclusive entries are left out as doubtful fits.

Assay: qHTS for Inhibitors of human tyrosyl-DNA phosphodiesterase 1 (TDP1): qHTS in cells in absence of CPT; note: nearly all actives have a fitted effect of over 55% in size
Details: DT40 Tdp1-/- hTDP1 cells, no CPT, ATP luminescence, 48 h; activity change, negative = growth inhibition: at 46.2 µM (top of the series) unless noted
Procedure, shortened: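 Camptothecin absent (DMSO only). Human TDP1-complemented DT40 knockout cells, 400 cells/well, 37 °C for minimum 48 hr; ATP measured via CellTiter-Glo, 30 min dark incubation, luminescence.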
% is set by controls: 0 for no effect and ±100 for the full control effect; potency is the fitted concentration of half-maximal effect; tags give direction and shape of the fitted curve.

With `CCOc1ccc(C(=O)N/N=C(\c2ccccc2)c2ccccn2)cc1` as the compound, how does the Potency read?
Its Potency is active: 2.91 µM.

Which Potency does the source give for `O=C(CN1C(=O)C(=O)c2ccccc21)c1ccccc1` here?
Its Potency is active: 4.11 µM.

Which Potency does the source give for `Cc1cc(O)c2c(C)c(CC(=O)N3CCN(C(=O)C4COc5ccccc5O4)CC3)c(=O)oc2c1` (stereo not drawn) here?
The Potency was inconclusive [inhibitor, single point].

Which “activity change, negative = growth inhibition” value does the source give for `O=C(COC(=O)c1cccc(Cl)c1)NC1CCCCCCC1` here?
The value was inactive: 0.239%.

Which Potency does the source give for `CC(C)(CO)NC(=O)CCCOc1ccc(Cl)cc1Cl` here?
The Potency was inconclusive [inhibitor, partial curve, poor fit].

With `O=C(Nc1cccc(-n2cnnn2)c1)c1ccoc1COc1ccc(Cl)cc1` as the compound, how does the activity change, negative = growth inhibition read?
Its activity change, negative = growth inhibition is inconclusive: -33.6% [inhibitor].

Which Potency does the source give for `Cc1ccccc1NC(=O)CSc1nnc(-c2ccccc2)n1-c1ccccc1` here?
The Potency was inconclusive [inhibitor, single point].

For `O=C(O)COc1cccc(NC(=O)C2CCCO2)c1` (stereo not drawn), which Potency is on record?
The Potency was inconclusive [inhibitor, partial curve, poor fit].

Which Potency does the source give for `COc1ccc(CCC(C)NCc2ccc(F)cc2)cc1` (stereo not drawn) here?
Its Potency is inconclusive [inhibitor, single point].

For `O=C(CC1N=C2c3ccccc3N=C(SCc3ccccc3Cl)N2C1=O)NCc1ccco1` (stereo not drawn), which “activity change, negative = growth inhibition” value is on record?
Its value is inactive: -26.3%.

Which “activity change, negative = growth inhibition” value does the source give for `CCC(c1nnnn1Cc1ccc(F)cc1)N1CCN(C)CC1` (stereo not drawn) here?
The value was inactive: -5.04%.

Which Potency does the source give for `O=C1N[C@@H](Cc2ccccc2)C(=O)N2[C@@H]1C[C@]1(Br)c3ccccc3N(S(=O)(=O)c3ccccc3)[C@H]21` here?
Its Potency is inconclusive [inhibitor, single point].

With `Cc1ccc(-c2csc(N(Cc3ccco3)C(=O)c3cccs3)n2)cc1` as the compound, how does the Potency read?
Its Potency is inconclusive [inhibitor, single point].

Which Potency does the source give for `CCn1c2nc(SCCN3CCOCC3)nnc2c2cc(C)cc(C)c21` here?
Its Potency is inconclusive [inhibitor, partial curve].

With `Nn1c(SCC(=O)Nc2ccccc2F)nc2ccccc2c1=O` as the compound, how does the Potency read?
Its Potency is inconclusive [inhibitor, partial curve].

Which Potency does the source give for `COc1ccc(NC(=O)CSC2CC(=O)N(c3ccc4c(c3)OCCO4)C2=O)cc1` (stereo not drawn) here?
The Potency was active: 23.1 µM.

With `Cc1cccc(C(=O)NNC2=C(C(=O)C(F)(F)F)CCC2)c1O` as the compound, how does the Potency read?
Its Potency is active: 13 µM.

With `CCOc1ccc(C(=O)NCCn2cc(SCC(=O)NCCc3ccc(OC)c(OC)c3)c3ccccc32)cc1` as the compound, how does the Potency read?
The Potency was inconclusive [inhibitor, full curve, poor fit].

For `COC(=O)c1ccc(Nc2ncnc3c2nc2n3CCCC2)cc1`, which Potency is on record?
The Potency was inconclusive [inhibitor, single point].

For `Cn1c(=O)c2c(nc(SCCN3CCCCC3)n2Cc2ccc(Cl)cc2)n(C)c1=O`, which Potency is on record?
Its Potency is inconclusive [inhibitor, single point].

With `CO[C@@H]1CN(C)C(=O)c2cc(NC(=O)Nc3cc(F)ccc3F)ccc2OC[C@H](C)NC[C@@H]1C` as the compound, how does the “activity change, negative = growth inhibition” value read?
Its value is inactive: -23.2%.

For `CCCCCc1cc(=O)oc2c(C(CCN3CCN(c4ccccc4)CC3)c3ccc(N(C)C)cc3)c(OC)cc(OC)c12` (stereo not drawn), which Potency is on record?
Its Potency is inconclusive [inhibitor, partial curve].

For `Cc1cc(/C=C(\C#N)C(=O)Nc2ccc(Cl)cc2)c(C)n1-c1ccc(N2CCOCC2)c([N+](=O)[O-])c1`, which Potency is on record?
The Potency was active: 7.31 µM.

With `N#Cc1ccc(CN2CCCC3(CCN(C(=O)c4ccncc4)CC3)C2)cc1` as the compound, how does the “activity change, negative = growth inhibition” value read?
Its value is inactive: -12.2%.

With `Cc1ccccc1COc1cccc(/C=N/NC(=O)c2nnn(-c3nonc3N)c2C)c1` as the compound, how does the “activity change, negative = growth inhibition” value read?
The value was inactive: 3.01%.

Which Potency does the source give for `CC(=O)c1cccc(Nc2nc(N3CCOCC3)nc(N3CCOCC3)n2)c1` here?
The Potency was inconclusive [inhibitor, single point].

For `NC1=NC[C@H](Cc2ccc(O)cc2)N1CCCCC1CCCCC1`, which Potency is on record?
Its Potency is active: 2.59 µM.

For `O=C1c2ccc(O)c(O)c2C(=O)c2c(O)ccc(O)c21`, which Potency is on record?
The Potency was inconclusive [inhibitor, single point].

For `O=C(c1cc2ccccc2o1)N1CCN(S(=O)(=O)/C=C/c2ccccc2)CC1`, which Potency is on record?
The Potency was inconclusive [inhibitor, single point].

With `CC(=O)c1cccc(NC(=O)C(C)OC(=O)c2ccc3ncsc3c2)c1` (stereo not drawn) as the compound, how does the Potency read?
The Potency was inconclusive [inhibitor, single point].

With `COc1ccccc1OCCn1cc(C(=O)c2cccs2)c2ccccc21` as the compound, how does the Potency read?
The Potency was active: 10.3 µM.

Which Potency does the source give for `CCC[C@H]1CC(=O)C=C(c2ccc(OC)cc2)ON1C(=O)OC(C)(C)C` here?
Its Potency is inconclusive [inhibitor, single point].

For `CCOC(=O)[C@]12CCCC=C1N(Cc1cccc3ccccc13)C(=O)[C@H](CC(=O)NCc1cccc3ccccc13)C2`, which Potency is on record?
Its Potency is inconclusive [inhibitor, single point].

Which Potency does the source give for `Cc1ccc(S(=O)(=O)N(C)C[C@H]2OCCCC[C@@H](C)Oc3ccc(NC(=O)Cc4ccccc4)cc3C(=O)N([C@H](C)CO)C[C@@H]2C)cc1` here?
Its Potency is inconclusive [inhibitor, single point].

Which “activity change, negative = growth inhibition” value does the source give for `CN1CCC(NC(=S)NC2CC2)CC1` here?
The value was inactive: -17.5%.

Which Potency does the source give for `CCOc1cnc(-c2ccc(Cl)cc2)o1` here?
The Potency was inconclusive [inhibitor, single point].

For `CCOC(=O)CC1COc2ccccc2N1C(=O)c1ccc(C)cc1` (stereo not drawn), which Potency is on record?
The Potency was inconclusive [inhibitor, single point].

With `Cc1cccc(-n2c(SCC(N)=O)nc3c(oc4ccccc43)c2=O)c1` as the compound, how does the Potency read?
The Potency was inconclusive [inhibitor, single point].

Which Potency does the source give for `Cc1nn(C)cc1/C=N/NC(=O)c1sc2ccccc2c1Cl` here?
The Potency was inconclusive [inhibitor, single point].

For `O=C(CSc1nnc(-c2cnccn2)n1Cc1ccco1)c1ccc(Cl)cc1`, which Potency is on record?
Its Potency is inconclusive [inhibitor, single point].

With `CCCSc1ccc([C@H]2N[C@@](C)(C(=O)OC)[C@H]3C(=O)N(C)C(=O)[C@@H]23)cc1OC` as the compound, how does the Potency read?
Its Potency is inconclusive [inhibitor, single point].

Which Potency does the source give for `CCOC(=O)N1CCN(C(=O)CN(c2cccc(Cl)c2C)S(=O)(=O)c2ccc(C)cc2)CC1` here?
The Potency was inconclusive [inhibitor, single point].

Which “activity change, negative = growth inhibition” value does the source give for `Cc1cc(Nc2cccc(Cl)c2)n2ncnc2n1` here?
The value was inactive: -16.2%.

With `C[C@@]12C(=O)Nc3ccccc3C(=O)N1[C@H]1c3cc(Br)ccc3OC[C@@H]1[C@@H]2c1ccccc1` as the compound, how does the Potency read?
Its Potency is inconclusive [inhibitor, single point].

With `CC1(C)CCC(C)(C)NC(=S)N1` as the compound, how does the Potency read?
The Potency was inconclusive [inhibitor, single point].

With `C=CCOc1ccc(/C=C/C(=O)OCC(=O)NC(C)c2ccc(F)cc2)cc1` (stereo not drawn) as the compound, how does the Potency read?
The Potency was inconclusive [inhibitor, single point].

For `O=C(c1ccc(S(=O)(=O)NCC2CCCO2)cc1)N1CCN(c2cccc(Cl)c2)CC1` (stereo not drawn), which Potency is on record?
Its Potency is active: 14.6 µM.

With `Cc1ccc(NC(=O)CN(C)C(=O)Cc2ccc(Cl)cc2Cl)cc1` as the compound, how does the “activity change, negative = growth inhibition” value read?
The value was inactive: -24.4%.

For `Cc1ccc(/C=C/C2=NN(Cc3ccccc3Cl)C(=O)CC2)cc1`, which Potency is on record?
The Potency was inconclusive [inhibitor, single point].

Which “activity change, negative = growth inhibition” value does the source give for `Cc1nn(CC(=O)NC2CC2)c(=O)c2cc3ccccc3n12` here?
The value was inactive: -8.27%.

With `COc1cc(OC)nc(Nc2nc(C(N)COCc3ccccc3)cs2)n1` (stereo not drawn) as the compound, how does the Potency read?
The Potency was inconclusive [inhibitor, single point].

With `O=C(OCC(=O)N(C1CCCCC1)C1CCCCC1)c1ccccc1O` as the compound, how does the Potency read?
The Potency was inconclusive [inhibitor, single point].

Which Potency does the source give for `CN(C)c1c(Cl)cc(/C=C2\C=Cc3ccccc32)cc1Cl` here?
Its Potency is inconclusive [inhibitor, single point].

With `CC1CCN(C(CNS(=O)(=O)c2ccccc2)c2ccccc2)CC1` (stereo not drawn) as the compound, how does the Potency read?
The Potency was inconclusive [inhibitor, partial curve, poor fit].

With `C=CCn1cnc2c(c1=O)c1nc3ccccc3nc1n2/N=C/c1ccccn1` as the compound, how does the Potency read?
The Potency was active: 20.6 µM.

For `Cc1ccc(NC(=O)CN2C(=O)NC3(CCCC3)C2=O)nc1`, which “activity change, negative = growth inhibition” value is on record?
The value was inactive: -4.69%.

Which Potency does the source give for `CCN(CC)CCN(C(=O)c1ccco1)c1nc2ccc(Cl)cc2s1` here?
The Potency was inconclusive [inhibitor, single point].

Which Potency does the source give for `O=C(NCCOc1ccccc1F)c1cccc(S(=O)(=O)N2CCN(c3ccccc3)CC2)c1` here?
Its Potency is active: 25.9 µM.

With `CCCc1cc(=O)[nH]c(SCC(=O)Nc2nc(-c3ccccc3)cs2)n1` as the compound, how does the Potency read?
The Potency was inconclusive [inhibitor, single point].

With `CC(C)(C)c1ccc(-n2ncc3c2CCCC3NC(=O)CCN2CCCC2=O)cc1` (stereo not drawn) as the compound, how does the Potency read?
Its Potency is active: 2.06 µM.

With `COc1ccc(CC(=O)N(C)CC(=O)Nc2cccc(F)c2)cc1S(=O)(=O)N1CCOCC1` as the compound, how does the “activity change, negative = growth inhibition” value read?
The value was inactive: 0.103%.

For `CCOC(=O)c1c(Nc2ccccc2)sc(/C=C2\C=Nc3ccccc32)c1O`, which Potency is on record?
Its Potency is inconclusive [inhibitor, partial curve].

With `Cc1cccc(NC(=S)NC(NC(=O)OCc2ccccc2)C(Cl)(Cl)Cl)c1` (stereo not drawn) as the compound, how does the Potency read?
The Potency was inconclusive [inhibitor, single point].

Which “activity change, negative = growth inhibition” value does the source give for `Cc1oc(-c2ccccc2NC(=O)C2CCCO2)nc1CNC(=O)c1cc(Cl)ccc1F` (stereo not drawn) here?
Its value is inactive: -11.2%.

For `CCc1nc2ccc(C(=O)NCc3ccc(OC)cc3)cn2c1N(CC)CCOC`, which Potency is on record?
The Potency was inconclusive [inhibitor, single point].

Which activity change, negative = growth inhibition does the source give for `Brc1ccc(OCCCN2CCOCC2)cc1` here?
Its activity change, negative = growth inhibition is inconclusive: -31.2% [inhibitor].

With `Fc1ccccc1N=C1Nc2cccc3cccc1c23` as the compound, how does the Potency read?
The Potency was inconclusive [inhibitor, single point].

Which Potency does the source give for `COc1ccc(CNc2ncc(-c3ccc(Cl)cc3)n2C)c(OC)c1OC` here?
Its Potency is inconclusive [inhibitor, single point].
